Test results reported in the supplement of paper PMC3334620.
Whole data set: some 33,000 sequences, median “E-score (-0.5 to 0.5)” near -0.056, cut for the highest 2% near 0.38. The list shows a part of the results.

Each sequence was assayed against Stb4 (UniProt P50104) (assay: PBM E-score (8-mer binding enrichment) (E-score (-0.5 to 0.5)); higher = stronger / more preferred TF binding; most listed sequences are background and not binding sites). Conditions: protein concentration: 200 nM; construct: GST-DNA-binding domain.
Protocol: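 Universal 'all 10-mer' protein binding microarrays (Agilent AMADID 015681) probed with GST-tagged S. cerevisiae TFs (full-length or DBD) made by in vitro transcription/translation (PURExpress), about 100-200 nM. Bound TF was detected with fluorescent anti-GST. Each ungapped 8-mer (which stands for itself and its reverse complement) is scored by the PBM enrichment score (E-score), a modified Wilcoxon-Mann-Whitney statistic from -0.5 to +0.5, computed with the Universal PBM Analysis Suite. Scale: above 0.35 generally sequence-specific binding.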

Sequence	PBM E-score
ACATATCA	-0.118
CTGGAAAG	-0.225
CGAGTGGC	0.0432
CAAACATG	-0.147
ACCTTGGC	-0.132
AGCCAAAA	-0.0824
ACGTCGTC	0.0122
CACAATAC	-0.0502
TGCGTCCA	-0.226
AGTTCGTA	0.0255
CTTGGTTC	0.124
CACAGAAA	-0.041
CCCAAGTC	-0.161
CGGCATAA	0.285
GACTATGA	-0.231
CCTCTCAC	-0.157
TTAACCAA	-0.222
GAAACGCA	-0.0307
CTCAGGGC	-0.0989
CTGCCTCC	-0.0686
AAGCCGGG	0.264
TCCCTACA	-0.122
AAAGGGGC	-0.197
GAATACCA	-0.0726
GTAGGAAC	-0.154

Sequence	PBM E-score
CGTTGTGA	-0.0537
CTAGGGCA	-0.217
AGTCTCGC	-0.0759
AAAGCCTA	-0.301
TCTCTTCA	0.00232
TAGGTGAA	-0.00505
ATGTGTTA	-0.199
CTCCCCAG	-0.192
GCGACCAA	-0.183
CGCGTAAA	0.0289
AACGGCAA	0.0937
CATTCATA	-0.0352
ACCCTAAG	-0.185
CCCGGTAC	0.247
CCTGCACA	-0.208
ATGCATAA	-0.243
CTTGGTGC	-0.201
ATGCATCC	0.0963
GAATCCTA	0.00817
TCAACACA	-0.197
AGTCCAAT	0.0202
CTCAATAA	-0.0997
CTCCTCAC	-0.146
GTAGTCCA	-0.0809
GCGCGGCA	0.154

Sequence	PBM E-score
TACCGTAA	0.0568
AAAGGGTC	-0.0434
AGGGCACG	-0.0855
GCTATCGA	-0.0697
ACCCTCTA	-0.324
ATCCGGAA	0.436
AACGACAC	-0.0524
ATAGTCCC	-0.0622
AACTGCGT	-0.294
ACATGGAT	-0.183
CATCTTTA	-0.0825
AAAATTAT	0.067
ATCTTCAT	0.0298
CTTGTTTC	-0.134
GATGAACA	-0.021
CCTCGTGC	-0.0632
CAAGCGAC	-0.148
GCTTAGCA	-0.0884
ACTCATAG	-0.0865
CCTCGGAA	0.484
GCACTAGA	-0.0878
ATACGTTA	-0.293
AACGATAG	0.015
ATCAGAGC	-0.0707
CTAGCCCC	-0.0513

Sequence	PBM E-score
ACCTGCTA	0.0269
AGTTGAGG	0.0277
ACTTATCC	0.275
AAGGTTTC	-0.0293
GCCTGGAC	-0.0755
ATTGAATC	-0.153
AGAGAAGG	-0.0976
ATTTCACG	0.133
AGACTAAG	-0.154
GAGCTTGA	-0.136
CGGAACCC	0.359
GGAGTCAC	0.0653
GCCTTTCA	-0.114
GTCCGCAA	0.0958
ATGGCAGG	0.0505
AGACAAGG	-0.118
ACTATGAA	-0.193
ATGGGCGA	-0.079
CGCAGCTC	-0.13
AGGTCGCG	0.0154
CGAGAGGC	0.113
ACCTACCA	-0.174
GCGTCTAA	-0.109
AAATACTC	0.121
ATGGCGGG	0.259

Sequence	PBM E-score
CGCTAGAA	-0.154
CGGCAGCA	0.257
CGACTTCC	0.101
GCGCTTAA	-0.18
TCGTGGCA	-0.255
ACACTGGA	-0.105
GCTGTATA	-0.288
AACGCCGT	-0.0885
AATCAGCG	0.048
CCTATTGC	-0.0913
AAATACCT	-0.0131
GCATGGGA	-0.0392
AAATTCTC	-0.0141
CGACCTGA	-0.127
GATCCCAA	-0.0342
ATAACTTC	0.0791
GCCACTGA	-0.115
CCCTTGAG	-0.134
GAAGGTTA	0.0955
AAGGAGGA	-0.124
CCATAACG	-0.0859
GGAAAATA	0.211
GAGCCTGA	-0.181
AACGTCTA	-0.181
GACATACA	0.0632

Sequence	PBM E-score
ACTAACTG	-0.111
GCCAGAGA	-0.0545
CATGAGGG	0.0385
GTAGAGGA	-0.0967
CATTTGTC	-0.0746
CATACTGA	-0.0487
ACCCTCGG	0.426
ACTTAGGG	-0.0175
CGGTTTGC	0.2
AAAGATTG	-0.192
GGGCGGCA	0.294
CTGAATCC	0.0406
AGCCTCAG	-0.23
CCGAGCGG	0.431
AGGAATCG	0.0767
CATGGTGC	-0.125
GTCATTTA	-0.171
ACCGCGAT	0.0549
AGGCGATC	-0.288
AAGATCCC	0.126
GGATGAGA	0.0903
CGTGGTGC	-0.135
ATTGGTGA	-0.253
ATTACACA	-0.13
GAGTTCAA	-0.09

Sequence	PBM E-score
CCACATGC	-0.341
CAGGAGCA	-0.163
GCGGCCGA	0.217
CATCGTCC	0.0921
AAGACTGC	-0.178
TAAATAGA	-0.0801
AGCGACTG	-0.244
ACACAGCA	-0.223
CACCGCGC	-0.205
AAGTTTAG	-0.0741
AGGGTTTG	0.0369
ATCACACG	-0.0114
ATTCTGAA	-0.0395
CGGTTTGA	0.0261
AGATTCTC	0.0482
AACAATAG	-0.192
CTGATCAG	-0.0422
CGTATCAA	-0.0516
GCACTTGA	-0.167
ATCACGAC	-0.123
TGATTCCA	-0.116
ACACCTTA	-0.186
ATGCGCTC	-0.116
CACATGTC	-0.103
ATTGTCGA	-0.0736

Sequence	PBM E-score
ACATAAGA	-0.0778
AATGCAGG	-0.0758
AACAGACA	0.0223
AACAGCAG	-0.134
AGATGCAA	-0.386
CAATTCCG	0.372
GACAGACC	-0.0234
AGAGTCCT	-0.165
GATCCTGC	-0.148
CACTTATG	0.0528
GACCCAGA	0.0584
CCCGAAGC	0.371
TACTGCCA	-0.111
TCTTCTCA	-0.00347
CGCGGGAG	0.172
ATTAAAAC	0.0963
GCGCCAAC	-0.121
ACCAGAGT	-0.324
ATGCGCCG	0.244
CAGGAGCC	-0.0422
AGTGCGCA	0.0691
ACTACGAT	-0.0781
AGGTTGGC	-0.205
GTGGCACA	-0.176
AGTGTACC	-0.0875

Sequence	PBM E-score
CTGGTTCC	0.147
GCCGGCGC	0.317
CTTTTTTC	-0.0005
CCGATGAA	0.33
TAGCCCGA	0.245
GGCTGACC	-0.0737
ATAGGCGA	-0.0411
CGTTAGTA	-0.0234
GATAACCA	-0.0419
AACAATCG	-0.0575
CGGTCTAC	-0.0166
TCGGAGAA	0.368
ACTGGGGC	-0.0477
CGACGAGC	-0.0324
CCTTAAGC	-0.0576
AGGACATG	-0.179
TCGAGCAA	-0.141
ACAGTAAC	-0.106
CCCCTAGC	-0.167
GGCACGCA	0.0767
CACTGCTA	-0.267
ACGCGGGG	0.124
CGTCCGAG	0.257
AACTAGTG	-0.171
AGACCTAG	-0.151

Sequence	PBM E-score
AGTCGGGG	0.205
CAATCCTA	-0.156
ACTAAGTA	-0.181
AGGTATGC	-0.11
AAGGGCGC	-0.171
CCGGCCAC	0.227
CATCTACC	0.128
ATAGTGCG	0.0217
AACACGGA	0.283
CGGACTTA	0.124
GCAGGCGA	-0.271
GACAGGTC	-0.188
TAAATAAA	0.0338
CAGCGTTA	-0.196
CTATTTGA	0.0111
AACTAGGA	0.0198
CCCACCCA	-0.0328
TAATGTCA	-0.012
GAAGATAC	0.169
AGTATTAT	-0.393
AACTATGG	-0.183
GCTAGGCC	-0.133
AGAACTTC	0.0283
CAAAAATG	-0.0968
AAAGGTTG	-0.0423

Sequence	PBM E-score
CCTGACGC	-0.0704
AGGACAGG	-0.228
TATGTCGA	-0.143
CTCGTTAC	-0.268
AAATACGT	-0.245
CTCTGCGA	-0.308
AACGAACG	-0.0822
CTTGTCTA	-0.116
AAGGCTCC	-0.0902
CCGACCCC	0.214
AGATCCCA	-0.0953
AGACGCTC	-0.153
CTATCACC	0.00312
CTTCTTGA	-0.164
CTTTACAA	-0.0169
ACCAGAGA	-0.352
GTTAACGA	-0.133
ACTGGACG	-0.0457
CAGCTGGA	-0.174
GGCGAATA	0.0785
GCACTAAA	0.00591
GGAGTCAA	0.175
AGATTGTC	0.153
CCGCTCGC	0.205
CAATGCTA	-0.0921

Sequence	PBM E-score
CGTTTGCA	0.0158
CTGTCGAA	-0.0969
CAAGGAAC	0.0878
AGGCCAAA	-0.106
GCTTAAGA	-0.0785
AAGATTCG	0.0909
AAAGCAAG	0.149
AGTGATAA	-0.144
AGCTAACG	-0.108
CTCAAGGA	-0.0981
AAGCGCTG	-0.0331
AAGACCTC	-0.0836
TCAGCCGA	0.385
ACCCATAG	-0.221
CTGTTACA	-0.0408
CCTCGCTA	-0.29
GCAGGACA	0.0224
ACCCGTTA	0.269
AAATAAGA	0.0469
ATATAAGA	-0.0688
ACTGCCGC	0.203
AGTAAAAC	-0.181
CGTGCATC	-0.0996
ATCGTAAG	-0.229
CCCGCGAA	0.128

Sequence	PBM E-score
GAAGATCC	0.303
AACGTTTG	-0.0719
CAGCTAGA	-0.308
AGATAACA	-0.22
GTGCTCTA	-0.212
CATAGAAC	0.0297
TCAGGCAA	-0.234
ATGCAGAC	-0.0485
CCCATGAA	-0.212
CGGAGCTC	0.193
CTTCCAAA	-0.174
ACTTAGAT	-0.023
GGACATAC	0.0378
CCTTTTAC	-0.0692
AACAAATG	0.0077
AGTCTGCA	-0.142
ATCATATG	-0.052
AAGTCTGG	-0.28
CAGCAGCA	-0.258
GATAACGA	-0.0372
GACTCGCA	-0.0572
ATGTAGAG	-0.17
ATCCATCG	-0.0113
CACAATGA	-0.213
CAAAATTG	-0.127

Sequence	PBM E-score
CCCTCTAG	-0.279
CCGATACA	0.257
CCCTCTGC	-0.325
ATGCTGCG	-0.186
CTCAAACC	-0.0373
AATGGCGG	0.181
AATCGGTC	0.148
CGAGGGAG	0.13
CACAGTAG	-0.0912
CCATCTTA	0.0253
GTACAGAC	-0.132
ACTAGTTG	-0.227
ATAAAACA	-0.109
CGCCACAC	-0.112
ACCTCGTA	0.0536
CCATAGCA	-0.235
AGTCGGGA	0.362
AACCCGGC	0.31
GACTGCGC	-0.0477
